In the supplement of paper PMC8728848:
The list shows a part of the results.

How the values were obtained:
Assay in all cases: glycan array binding signal (z-score within array); higher = stronger binding
Conditions in all cases: glycan notation: IUPAC condensed, linker removed
GalNAc3S(b1-4)GlcNAc3S = molecular target: GalNAc3S(b1-4)GlcNAc3S
How it was run: (§1)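 Glycan array binding is given as a within-array Z-score, which can be read as non-binding when negative. The arrays, 3228 of them, came from the Consortium for Functional Glycomics database and were retained only where the protein sequence was available. Z-scores were averaged across arrays of the same protein sequence at different concentrations or buffers and across linkers.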

[1] = molecular target: GalNAc3S(b1-4)[Fuc(a1-3)]GlcNAc
How it was run: as §1

GalNAc4S6S(b1-4)GlcNAc = molecular target: GalNAc4S6S(b1-4)GlcNAc
How it was run: as §1

GalNAc6S(b1-4)GlcNAc = molecular target: GalNAc6S(b1-4)GlcNAc
How it was run: as §1

Glc(a1-4)Glc = molecular target: Glc(a1-4)Glc
How it was run: as §1

[2] = molecular target: Glc(a1-4)Glc(a1-4)Glc(a1-4)Glc
How it was run: as §1

Glc(a1-6)Glc(a1-6)Glc = molecular target: Glc(a1-6)Glc(a1-6)Glc
How it was run: as §1

[3] = molecular target: Glc(a1-6)Glc(a1-6)Glc(a1-6)Glc
How it was run: as §1

Glc(b1-4)Glc = molecular target: Glc(b1-4)Glc
How it was run: as §1

Glc(b1-6)Glc = molecular target: Glc(b1-6)Glc
How it was run: as §1

GlcA(b1-3)Gal = molecular target: GlcA(b1-3)Gal
How it was run: as §1

GlcA(b1-3)GlcNAc = molecular target: GlcA(b1-3)GlcNAc
How it was run: as §1

GlcA(b1-6)Gal = molecular target: GlcA(b1-6)Gal
How it was run: as §1

[4] = molecular target: GlcA3S(b1-3)Gal(b1-4)GlcNAc(b1-2)Man
How it was run: as §1

[5] = molecular target: GlcA3S(b1-3)Gal(b1-4)GlcNAc(b1-3)Gal(b1-4)Glc
How it was run: as §1

[6] = molecular target: GlcNAc(a1-3)Gal(b1-4)GlcNAc
How it was run: as §1

[7] = molecular target: GlcNAc(a1-4)Gal(b1-3)GlcNAc
How it was run: as §1

[8] = molecular target: GlcNAc(a1-4)Gal(b1-4)GalNAc
How it was run: as §1

[9] = molecular target: GlcNAc(a1-4)Gal(b1-4)GlcNAc
How it was run: as §1

[10] = molecular target: GlcNAc(a1-4)Gal(b1-4)GlcNAc(b1-3)Gal(b1-4)Glc
How it was run: as §1

[11] = molecular target: GlcNAc(a1-4)Gal(b1-4)GlcNAc(b1-3)Gal(b1-4)GlcNAc
How it was run: as §1

[12] = molecular target: GlcNAc(a1-4)Gal(b1-4)GlcNAc(b1-3)Gal(b1-4)GlcNAc(b1-3)Gal(b1-4)GlcNAc
How it was run: as §1

[13] = molecular target: GlcNAc(a1-4)Gal(b1-4)GlcNAc(b1-3)Gal(b1-4)[Fuc(a1-3)]GlcNAc(b1-3)Gal(b1-4)[Fuc(a1-3)]GlcNAc
How it was run: as §1

[14] = molecular target: GlcNAc(a1-6)Gal(b1-4)GlcNAc
How it was run: as §1

[15] = molecular target: GlcNAc(b1-2)Gal(b1-3)GalNAc
How it was run: as §1

[16] = molecular target: GlcNAc(b1-2)Man(a1-3)[GlcNAc(b1-2)Man(a1-6)]Man(b1-4)GlcNAc(b1-4)GlcNAc
How it was run: as §1

[17] = molecular target: GlcNAc(b1-2)Man(a1-3)[GlcNAc(b1-2)Man(a1-6)]Man(b1-4)GlcNAc(b1-4)[Fuc(a1-6)]GlcNAc
How it was run: as §1

[18] = molecular target: GlcNAc(b1-2)Man(a1-3)[GlcNAc(b1-4)][GlcNAc(b1-2)Man(a1-6)]Man(b1-4)GlcNAc(b1-4)GlcNAc
How it was run: as §1

[19] = molecular target: GlcNAc(b1-2)Man(a1-3)[GlcNAc(b1-4)][GlcNAc(b1-2)Man(a1-6)]Man(b1-4)GlcNAc(b1-4)[Fuc(a1-6)]GlcNAc
How it was run: as §1

[20] = molecular target: GlcNAc(b1-2)[GlcNAc(b1-4)]Man(a1-3)[GlcNAc(b1-2)Man(a1-6)]Man(b1-4)GlcNAc(b1-4)GlcNAc
How it was run: as §1

[21] = molecular target: GlcNAc(b1-2)[GlcNAc(b1-4)]Man(a1-3)[GlcNAc(b1-4)][GlcNAc(b1-2)Man(a1-6)]Man(b1-4)GlcNAc(b1-4)GlcNAc
How it was run: as §1

[22] = molecular target: GlcNAc(b1-2)[GlcNAc(b1-4)]Man(a1-3)[GlcNAc(b1-4)][GlcNAc(b1-2)[GlcNAc(b1-6)]Man(a1-6)]Man(b1-4)GlcNAc(b1-4)GlcNAc
How it was run: as §1

[23] = molecular target: GlcNAc(b1-2)[GlcNAc(b1-4)]Man(a1-3)[GlcNAc(b1-4)][GlcNAc(b1-2)[GlcNAc(b1-6)]Man(a1-6)]Man(b1-4)GlcNAc(b1-4)[Fuc(a1-6)]GlcNAc
How it was run: as §1

[24] = molecular target: GlcNAc(b1-2)[GlcNAc(b1-6)]Man(a1-6)[GlcNAc(b1-2)Man(a1-3)]Man(b1-4)GlcNAc(b1-4)GlcNAc
How it was run: as §1

[25] = molecular target: GlcNAc(b1-2)[GlcNAc(b1-6)]Man(a1-6)[GlcNAc(b1-2)Man(a1-3)]Man(b1-4)GlcNAc(b1-4)[Fuc(a1-6)]GlcNAc
How it was run: as §1

[26] = molecular target: GlcNAc(b1-2)[GlcNAc(b1-6)]Man(a1-6)[GlcNAc(b1-4)][GlcNAc(b1-2)Man(a1-3)]Man(b1-4)GlcNAc(b1-4)GlcNAc
How it was run: as §1

GlcNAc(b1-3)Fuc = molecular target: GlcNAc(b1-3)Fuc
How it was run: as §1

GlcNAc(b1-3)Gal = molecular target: GlcNAc(b1-3)Gal
How it was run: as §1

B1: PkBDPgamma (Plasmodium knowlesi) (protein)
chain: SAINQIFLQNNVMDKCNDKRKRGERDWDCPTEKDVCIPDRRYQLCMMEITNLVDTDTHFHSDIIFRKSYSRRRLIYDVGGRGDLLLKKYNNVYSEDLCKDIKWSLQDFGDIIMGTDMEGIGYSLVVQNNLRSIFGTGTSAELDRKKWWNDHKKDIWKAMILSVKEKNRYSAWNCKEDVQIKVEPQIYRWIREWGRDYMSEFREQRRKLNEKCEDKLYYSTMLICTLPPCNNACKSYDEWITGKKKQWDVLSTKFSSVKKAQKIETENIARAYDILKQELNGFNEVTFENEINKRDKLYNYFCVCIVQEARKNTQENVKNVGSGVESKAPSSNPINEAVKSSSGEGKVQEDSAHRSVNEGEGKSSTNEADPGSQPGAAASGGGSGGGTGGGVDLAPQMLRELQETNAALQDVRELLRQQVKEITFLKNTVMECDACGGPLDRNLPPLAPLGPTGGWSHPQFEK
glycan array binding signal (z-score) (GalNAc3S(b1-4)GlcNAc3S): -0.215
glycan array binding signal (z-score) [1]: 0.068
glycan array binding signal (z-score) (GalNAc4S6S(b1-4)GlcNAc): -0.478
glycan array binding signal (z-score) (GalNAc6S(b1-4)GlcNAc): 0.267
glycan array binding signal (z-score) (Glc(a1-4)Glc): 0.205
glycan array binding signal (z-score) [2]: -0.232
glycan array binding signal (z-score) (Glc(a1-6)Glc(a1-6)Glc): -0.504
glycan array binding signal (z-score) [3]: 0.897
glycan array binding signal (z-score) (Glc(b1-4)Glc): 0.621
glycan array binding signal (z-score) (Glc(b1-6)Glc): 0.045
glycan array binding signal (z-score) (GlcA(b1-3)Gal): -0.021
glycan array binding signal (z-score) (GlcA(b1-3)GlcNAc): -0.473
glycan array binding signal (z-score) (GlcA(b1-6)Gal): -0.22
glycan array binding signal (z-score) [4]: -0.251
glycan array binding signal (z-score) [5]: -0.358
glycan array binding signal (z-score) [6]: -0.102
glycan array binding signal (z-score) [7]: -0.192
glycan array binding signal (z-score) [8]: -0.178
glycan array binding signal (z-score) [9]: -0.557
glycan array binding signal (z-score) [10]: -0.217
glycan array binding signal (z-score) [11]: -0.39
glycan array binding signal (z-score) [12]: -0.159
glycan array binding signal (z-score) [13]: 0.193
glycan array binding signal (z-score) [14]: -0.284
glycan array binding signal (z-score) [15]: -0.401
glycan array binding signal (z-score) [16]: -0.276
glycan array binding signal (z-score) [17]: -0.068
glycan array binding signal (z-score) [18]: 0.306
glycan array binding signal (z-score) [19]: -0.105
glycan array binding signal (z-score) [20]: 0.378
glycan array binding signal (z-score) [21]: 0.338
glycan array binding signal (z-score) [22]: -0.395
glycan array binding signal (z-score) [23]: -0.236
glycan array binding signal (z-score) [24]: 0.138
glycan array binding signal (z-score) [25]: 0.185
glycan array binding signal (z-score) [26]: 0.107
glycan array binding signal (z-score) (GlcNAc(b1-3)Fuc): 0.497
glycan array binding signal (z-score) (GlcNAc(b1-3)Gal): 0.201
